From the RNAGym collection of RNA variant scans (doi:10.1093/nar/gkz1192)
The source gives no read counts; variants with many changes may rest on few reads.

B1: CPEB3 Ribozyme (parent)
chain: UAACAGGGGGCCACAGCAGAAGCGUUCACGUCGCAGCCCCUGUCAGAUUCUGGUGAAUCUGCGAAUUCUGCUGUAUAUCUC

Variants of: B1
Assay: self-cleavage, relative activity (ratio to wild type); higher = more cleavage; in vitro, sequencing
How it was run: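 CPEB3 self-cleaving ribozyme mutant libraries were made by rounds of error-prone PCR, barcoded, and transcribed in vitro with T7 RNA polymerase for 5 hours at 37°C. Cleavage occurred during transcription and a 15 min DNase I step before EDTA stop. RNAs were reverse transcribed with template switching and Illumina-sequenced, with DNA sequencing mapping barcodes to variants. Relative activity is the variant's cleaved/total read fraction divided by wild type's (minimum 5 reads), averaged across three batches.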

Row | Variant | self-cleavage
1 | C12U A20U U43A C79A | 0.96
2 | C12U A21G G33A | 0.05
3 | C12U A21G U51A U69C | 0.36
4 | C12U A21U A28G U76C | 0.2
5 | C12U A28G A45C U48C U66C | 0.17
6 | C12U A28G A45U U76G | 0.25
7 | C12U A28G U41C U72A | 0.71
8 | C12U A35G A47G U66C U74C | 0.5
9 | C12U A45G A75U | 1.18
10 | C12U A47G A56G | 1.23
11 | C12U A56G G63A | 1.26
12 | C12U A56G U58G U76A | 0.43
13 | C12U A56U U67C A77U U80C | 0.38
14 | C12U A57G A64G | 1.16
15 | C12U A57G A64G A65G U80C | 0.2
16 | C12U A65G U78C | 0.47
17 | C12U C17G A21G A64G U67C | 0.18
18 | C12U C17U A18G A21G A56G U60G A64G | 0.04
19 | C12U C23G A35G U74C | 0.16
20 | C12U C23G A35U A57U U72A | 0.08
21 | C12U C32U A35U U41G U58C U66C U69C | 0.07

Row | Variant | self-cleavage
22 | C12U C37A A47G | 0.34
23 | C12U C37U U43C | 0.58
24 | C12U C38G U49C G70A U72C | 0.07
25 | C12U G16A A35G U43C U60A U66C | 0.11
26 | C12U G24A G30U A65G U74G | 0.08
27 | C12U G30U A47G U72C U74A | 0.19
28 | C12U G33A A77G | 0.21
29 | C12U U25C A35G C44A | 0.08
30 | C12U U25C C40A | 0.06
31 | C12U U25C G30A U41C A64G | 0.11
32 | C12U U25C G52U U72A | 0.2
33 | C12U U25C U41A U51A U72C | 0.08
34 | C12U U25C U41C U51C | 0.11
35 | C12U U25C U43A | 0.14
36 | C12U U25C U67C | 0.07
37 | C12U U26A C29G U54C U58C U66C | 0.11
38 | C12U U26A U48C A57G U58A C59A | 0.29
39 | C12U U26A U67C U69C | 0.24
40 | C12U U26C C32U C37A U49C A65G G73U | 0.04
41 | C12U U26C C37U U78C | 0.15
42 | C12U U26C U43C U49C U80C | 0.24

Row | Variant | self-cleavage
43 | C12U U26C U80C | 0.77
44 | C12U U31A U54A A57G | 1.06
45 | C12U U31C A56U U72A | 0.13
46 | C12U U31C G36C G53A A77G | 0
47 | C12U U31C U41C A45G U51A U66G | 0.25
48 | C12U U31G U41C | 0.86
49 | C12U U41C U80C | 1.23
50 | C12U U43A U72C | 1.21
51 | C12U U43A U76A | 1.27
52 | C12U U48C G52A U66A | 0.33
53 | C12U U51C A65G | 0.88
54 | C12U U54C A77G | 1.11
55 | C12U U58A A75G | 1.01
56 | C12U U58C A65G A75G | 0.51
57 | C12U U60A G61U A65G U80A | 0.41
58 | C12U U60C A64U | 0.29
59 | C12U U66C U80C | 0.4
60 | C12U U67A C71G | 0.51
61 | C12U U72G A77U | 1.32
62 | C12U U74A C79A | 1.34
63 | A13C A15G G33A A57G | 0.24

Row | Variant | self-cleavage
64 | A13C A15U U26C U48C U66C | 0.22
65 | A13C A18G A20G A28G U48C | 0
66 | A13C A18G A20U A45G | 0.35
67 | A13C A18G C23U A28G C29A U67C | 0.08
68 | A13C A18G U26A C39A U78C | 0.17
69 | A13C A18U A21G A65G | 0.34
70 | A13C A18U G30C U41C U49C U58C A77U | 0.14
71 | A13C A18U U41C | 0.44
72 | A13C A20G U60C U74C | 0.38
73 | A13C A20G U76C C81U | 0.84
74 | A13C A21G A28U A35G U80C | 1
75 | A13C A21G U25C C32A A45C U69C | 0.05
76 | A13C A21G U51C U78C | 0.43
77 | A13C A21U U48C U49C | 0.18
78 | A13C A28G C37U U66C U67A | 0.42
79 | A13C A35G U41G U78C | 0.28
80 | A13C A35G U72C | 1.23
81 | A13C A35U A47G | 0.19
82 | A13C A35U U60A U69A | 0.13
83 | A13C A35U U69C U74C | 0.16
84 | A13C A45G U78A | 0.81
